For 74 compounds, B-score results are on record in the supplement of paper PMC11283458.

Where a name gives a salt, the structure may show the parent alone. Some of the results follow. Repeats are few or missing, and single values can be far off.

The test system of test [1] is Mef2d microexon dual Nano/Firefly luciferase splicing reporter in Neuro-2a cells. As to the kind of experiment: B-score of Firefly/Nano luminescence ratio, V1 Mef2d microexon reporter (B-score (plate-normalised)); higher = more Mef2d microexon inclusion. Conditions: 24 h.
For test [2] the test system is unchanged. In words: B-score of Nano/Firefly luminescence ratio, V2 Mef2d microexon reporter (B-score (plate-normalised)); higher = more Mef2d microexon inclusion. The settings on record: 24 h.
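For B-score of Nano/Firefly luminescence ratio, V2 Mef2d microexon reporter in this document: compounds at 4 µM (PKI library 0.5 µM) on Dox-inducible N2A Flp-In cells with PEST-tagged luciferases, 384-well plates, B-score from per-plate median-polish residual over median absolute residual.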

`CS(=O)(=O)N1CCN(Cc2cc3nc(-c4cccc5[nH]ncc45)nc(N4CCOCC4)c3s2)CC1` [GDC-0941, Pictilisib, Pictrelisib, RG-7321] (0.5 µM): the values for the B-score in test [1] and in test [2] were -4.13 and -2.51, respectively.
`CCc1ccc(N2C(=O)C(Cl)=C(Nc3cc(OC)ccc3OC)C2=O)cc1` (4 µM): the B-score in test [1] was 3.44; in test [2], 2.88.
On the same counts, the results for `Cc1nn(Cc2cccc(C(=O)ON=C(N)c3ccc(Cl)cc3)c2)c(C)c1Br` (4 µM) are 9.93 and 6.98.
In the same order, the values of `COc1ccc(-c2ccc3c(N4CCOC[C@@H]4C)nc(N4CCOC[C@@H]4C)nc3n2)cc1CO` (0.5 µM) are -7.5 and -6.28.
On the same counts, the results for `COc1ccc(-c2nn(-c3ccccc3)cc2CNCCc2ccccc2)cc1` (4 µM) are -8.94 and -8.21.
`CCOC(=O)C(=Cc1cccc([N+](=O)[O-])c1)C(=O)OCC` (4 µM): the B-score in test [1] is -2.38; in test [2], -2.16.
On the same counts, the results for `Cc1ccc(NC(=O)C(C)NC(=O)c2cccc(C)c2)nc1` (stereo not drawn) (4 µM) are -4.44 and -13.4.
On the same counts, the results for `O=C(Nc1ncc(Cc2ccc(F)c(F)c2)s1)c1ccc(-n2cccn2)nc1` (4 µM) are -8.86 and -2.95.
On the same counts, the results for `CN1CCN(c2ccc(OC(F)(F)F)c(Nc3ncc4c(n3)-c3c(c(C(N)=O)nn3CCO)CC4)c2)CC1` (0.5 µM) are -7.5 and -7.41.
With `CCOC(=O)c1sc(S(C)=O)c2c1CC(c1ccccc1)CC2=O` (stereo not drawn) (4 µM), the figures for the B-score in test [1] and in test [2] were 8.26 and 6.69, respectively.
In the same order, the values of `O=[N+]([O-])c1ccc(Oc2ccc(-c3nnco3)cc2)c2ccncc12` (4 µM) are -2.63 and -3.87.
Take `COc1ccccc1C1CCN(c2ccc(C=CC(=O)NCc3ccccc3)cc2[N+](=O)[O-])CC1` (4 µM): the B-score in test [1] came to 4.14; in test [2], 1.74.
On the same counts, the results for `COc1cccc2c1C(=O)c1c(O)c3c(c(O)c1C2=O)C[C@@](O)(C(=O)CO)C[C@@H]3O[C@H]1C[C@H](N)[C@H](O)[C@H](C)O1` [Doxorubicin hydrochloride] (4 µM) are -9.08 and -9.87.
For the compound `COc1ccc(-c2ccc3ncc4c(c3c2)n(-c2ccc(N3CCNCC3)c(C(F)(F)F)c2)c(=O)n4C)cn1` (0.5 µM), the B-score was -16.4 in test [1] and -10.2 in test [2].
On the same counts, the results for `COc1ccc(C(=O)C=C(C(=O)c2ccccc2)c2ccccc2)cc1CN1CCOCC1` (4 µM) are -7.33 and -2.21.
On the same counts, the results for `CO[C@H]1O[C@@H]2O[C@@]3(C)CC[C@H]4[C@H](C)CC[C@@H]([C@H]1C)[C@@]24OO3` (4 µM) are 18.3 and 8.32.
As to `CN(C)c1ccc(-n2nnnc2SCc2ccc(Cl)cc2)cc1` (4 µM), the B-score in test [1] is -9.11; in test [2] it was -12.6.
In the same order, the values of `CN(C)S(=O)(=O)c1ccc2c(c1)/C(=C/c1cc3c([nH]1)CCCC3)C(=O)N2` (0.5 µM) are 7.32 and 2.02.
On the same counts, the results for `COC(=O)c1sc(S(C)(=O)=O)c(C#N)c1-c1cccs1` (4 µM) are 8.77 and 1.54.
In the same order, the values of `Cc1nc(C(N)=NOC(=O)c2c(-c3c(Cl)cccc3Cl)noc2C)cs1` (4 µM) are 3.12 and 3.97.
Turning to `O=c1onc(-c2c(F)cccc2F)n1-c1ccccc1Cl` (4 µM), the B-score in test [1] was -13.2; in test [2], -0.593.
For `Cc1cc(NCc2ccc(-c3csc(C)n3)s2)n2ncnc2n1` (4 µM), the B-score was -25.6 in test [1] and -21.9 in test [2].
On the same counts, the results for `CC1=NNC(=O)/C1=N\Nc1ccc(Br)cc1` (4 µM) are 2.02 and 18.
On to `CC(C)NCC(O)Cn1c2c(c3ccccc31)CCc1c-2cnn1-c1ccccc1` (stereo not drawn) (4 µM), for which the B-score in test [1] is -9.58; in test [2], -2.28.
Turning to `CCCN1C/C(=C\c2ccc(F)cc2)C(=O)/C(=C/c2ccc(F)cc2)C1` (4 µM), the values for the B-score in test [1] and in test [2] were -3.41 and -8.9, respectively.
In the same order, the values of `Cc1ccc(C(=O)CSc2nc3cc(C(F)(F)F)ccc3n2C(C)C)cc1` (4 µM) are 3.29 and 2.89.
As for `COc1c(Cl)cc(Cl)c(OC)c1C(=O)ON=C(N)c1ccc([N+](=O)[O-])o1` (4 µM), the B-score in test [1] worked out at 5.23; in test [2] it was 3.24.
On to `CCCc1c(C(=O)ON=C(N)c2ccc(C(F)(F)F)cc2)cnn1-c1ccc(Cl)cc1` (4 µM), for which the B-score in test [1] was found to be 12.8; in test [2] it was 2.73.
For the compound `CC(=O)Nc1cccc(-n2c(=O)n(C3CC3)c(=O)c3c(Nc4ccc(I)cc4F)n(C)c(=O)c(C)c32)c1` (0.5 µM), the B-score is 15.8 in test [1] and 19.2 in test [2].
On to `C=CC(C)(C)c1[nH]c2ccccc2c1C1=C(O)C(=O)C(c2c[nH]c3c(CC=C(C)C)cccc23)=C(O)C1=O` [Demethylasterriquinone B1] (4 µM), for which the figures for the B-score in test [1] and in test [2] were -4.54 and -4.78, respectively.
For `CC(C)(C)c1cc(/C=C(\C#N)C(N)=S)cc(C(C)(C)C)c1O` [Tyrphostin AG 879] (4 µM), the B-score in test [1] was -7.27; in test [2], -2.06.
Consider `N#CC1(C#N)C(C#N)(C#N)C12CCCCC2` (4 µM), for which the figures for the B-score in test [1] and in test [2] were -1.28 and -8.65, respectively.
For `NC(=NOC(=O)c1c(F)cccc1Cl)c1ccc([N+](=O)[O-])o1` (4 µM), the B-score is 3.37 in test [1] and 2.46 in test [2].
On the same counts, the results for `NC(=NOC(=O)c1cc(-c2ccccc2)c(C(F)(F)F)s1)c1ccccc1` (4 µM) are 2.02 and 2.29.
Regarding `N#Cc1ccc(NCc2ccccc2Cl)cc1` (4 µM), the B-score in test [1] was -8.09; in test [2], -3.17.
Regarding `Clc1ccccc1NCn1nnc2ccccc21` (4 µM), the B-score in test [1] was 5.27; in test [2], 1.43.
For `O=C(NCc1ccc(NC(=O)C2CC2)cc1)c1n[nH]c2ccccc12` (4 µM), the B-score in test [1] was -5.85; in test [2] it was -4.73.
Consider `Cn1c(=O)c(C(N)=NOC(=O)c2ccc(Cl)cc2)cn(-c2ccccc2)c1=O` (4 µM), for which the B-score in test [1] turned out to be 7.56; in test [2], 2.44.
For the compound `Ic1ccc(N2CCN(Cc3c[nH]c4ncccc34)CC2)cc1` [L-750,667 trihydrochloride] (4 µM), the B-score amounted to 6.26 in test [1] and 3.16 in test [2].
Consider `O=C1c2c(O)ccc(O)c2C(=O)c2c(NCCNCCO)ccc(NCCNCCO)c21` [Mitoxantrone] (4 µM), for which the values for the B-score in test [1] and in test [2] were -12.7 and -13.8, respectively.
On the same counts, the results for `COc1c(C)c2c(c(O)c1C/C=C(\C)CCC(=O)O)C(=O)OC2` [Mycophenolic acid] (4 µM) are -3.84 and -6.55.
As to `Oc1cc2c(cc1O)CN(C(=S)NCCc1ccc(Cl)cc1)CCC2` [Capsazepine] (4 µM), the B-score in test [1] is -4.11; in test [2], -9.25.
Regarding `CN1CCN(Cc2cc(Br)c(O)c3ncccc23)CC1` (4 µM), the values for the B-score in test [1] and in test [2] were 10.7 and 4.33, respectively.
With `COc1ccccc1C1CCN(c2ccc(C=CC(=O)NNC(=O)c3ccc(C(F)(F)F)cc3)cc2[N+](=O)[O-])CC1` (4 µM), the B-score was 8.18 in test [1] and 2.51 in test [2].
Regarding `CC(C)(C)C(=O)C(=Cc1cccc([N+](=O)[O-])c1)n1cncn1` (4 µM), the figures for the B-score in test [1] and in test [2] were -7.11 and -6.45, respectively.
On the same counts, the results for `C/C(=N\Cc1ccc(Cl)c(Cl)c1)c1ccccc1O` (4 µM) are 6.46 and 2.58.
In the same order, the values of `Cc1ccc(S(=O)(=O)N/N=C/c2ccc3ccccc3c2O)cc1` (4 µM) are 3.91 and 37.8.
With `O=C1C(=C2NC(c3ccccn3)C3C(=O)N(c4ccc(OC(F)(F)F)cc4)C(=O)C23)C(=O)c2ccccc21` (stereo not drawn) (4 µM), the B-score in test [1] turned out to be 7.34; in test [2] it was 7.45.
In the same order, the values of `COC(=O)Nc1nc2cc(C(=O)c3ccc(F)cc3)ccc2[nH]1` (4 µM) are -11 and -14.4.
In the case of `O=C1c2ccccc2S(=O)c2ccccc2S(=O)(=O)N1Cc1ccccc1` (stereo not drawn) (4 µM), the B-score in test [1] was -2.78; in test [2], -2.72.
Turning to `Cc1onc(-c2cccc(Cl)c2Cl)c1C(=O)ON=C(N)c1ccc([N+](=O)[O-])o1` (4 µM), the results for the B-score in test [1] and in test [2] were 3.46 and 5.23, respectively.
For `Cc1ccc(Cl)cc1NC(=O)CC(C)CC(=O)O` (stereo not drawn) (4 µM), the B-score in test [1] was 7.47; in test [2] it was 0.952.
With `CCCCC1C(=O)N(c2ccccc2)N(c2ccc(O)cc2)C1=O` (stereo not drawn) [Oxyphenbutazone] (4 µM), the B-score is -5.17 in test [1] and -4.44 in test [2].
In the case of `N#CCc1ccc(Nc2nc(Nc3cc(C4CCC4)[nH]n3)c3ccccc3n2)cc1` (0.5 µM), the B-score in test [1] and in test [2] was -15.2 in each case.
Turning to `N=c1n(CCN2CCCCC2)c2ccccc2n1CC(=O)c1cccc([N+](=O)[O-])c1` (4 µM), the B-score in test [1] turned out to be 0.791; in test [2], 3.09.
On the same counts, the results for `Cc1noc(C)c1C(=O)ON=C(N)c1ccc(OC(F)(F)F)cc1` (4 µM) are 20.4 and 1.73.
On to `CCCN(CCC)c1ccc2nonc2c1[N+](=O)[O-]` (4 µM), for which the B-score in test [1] is -3.48; in test [2] it was -4.15.
Take `O=C(Nc1c[nH]nc1-c1nc2ccc(CN3CCOCC3)cc2[nH]1)NC1CC1` (0.5 µM): the B-score in test [1] was -2.48; in test [2] it was -8.47.
Take `COc1ccc(N/C=C(/C#N)c2nc(-c3ccc(C)cc3C)cs2)cc1` (4 µM): the B-score was -12.1 in test [1] and -13 in test [2].
In the same order, the values of `Cc1cccc(Nc2nc3nonc3nc2Nc2ccc(F)cc2)c1C` (4 µM) are -3.01 and -3.1.
In the same order, the values of `Cc1oc2c(F)c(F)c(F)c(F)c2c1C(=O)ONC(N)c1ccc(OS(=O)(=O)N(C)C)cc1` (stereo not drawn) (4 µM) are 7.37 and 5.14.
In the same order, the values of `CSc1c(C#N)c(-c2cccs2)nn1CNC(=O)Nc1cc(C(F)(F)F)cc(C(F)(F)F)c1` (4 µM) are 5.57 and 5.32.
Turning to `CC1=NNC(=O)/C1=N\Nc1ccccc1C` (4 µM), the B-score was 0.674 in test [1] and 11.6 in test [2].
As for `CSc1nn(-c2ccccc2)cc1C(=O)Sc1ccccn1` (4 µM), the results for the B-score in test [1] and in test [2] were 3.24 and 5.52, respectively.
As for `Cc1cc(Nc2nc(N[C@@H](C)c3ncc(F)cn3)ncc2Cl)[nH]n1` (0.5 µM), the values for the B-score in test [1] and in test [2] were 14.7 and 10.5, respectively.
In the same order, the values of `Cc1cc(-c2ccc(N=Cc3cccc([N+](=O)[O-])c3)c(C)c2)ccc1N=Cc1cccc([N+](=O)[O-])c1` (4 µM) are -6.01 and -4.5.
On to `O=C(NCc1nnc2ccccn12)Nc1ccc(F)cc1` (4 µM), for which the B-score in test [1] was -5.4; in test [2] it was -1.27.
In the same order, the values of `COc1ccc(-c2cc(NC(=O)Cc3c(C)noc3C)ccc2OC)cc1` (4 µM) are 4.78 and 3.25.
On the same counts, the results for `COC(=O)c1sc(S(C)(=O)=O)c2c1CC(C)(C)CC2=O` (4 µM) are -0.744 and -5.34.
On to `COc1cc2/c(=N/c3ccc(Br)cc3F)nc[nH]c2cc1OCC1CCN(C)CC1` [Vandetanib, Zactima, ZD6474, AZD-6474] (0.5 µM), for which the results for the B-score in test [1] and in test [2] were -4.5 and -2.81, respectively.
In the same order, the values of `CS(=NS(=O)(=O)c1cccc2nsnc12)c1ncc(C(F)(F)F)cc1Cl` (stereo not drawn) (4 µM) are 8.8 and 5.84.
On the same counts, the results for `COc1ccc(C(O)CCNC(CC(C)C)C(=O)O)cc1` (stereo not drawn) (4 µM) are -1.61 and -4.82.
In the same order, the values of `Cc1ccc(NC(=O)c2cccc(C(C)(C)C#N)c2)cc1Nc1ccc2ncn(C)c(=O)c2c1` (0.5 µM) are 4.64 and 5.89.
For `Cc1nn(-c2ccccc2)c(C)c1C(=O)ON=C(N)c1ccc(C(C)(C)C)cc1` (4 µM), the B-score in test [1] was -2.54; in test [2] it was -11.4.
